The whole screen tested about 310,000 compounds, of which about 18,000 (5.8%) were called active. The shares of active, inactive and inconclusive entries below differ from those in the screen. The call rests on the fitted dose curve; in most records, active means well fitted inhibition curve with a large enough effect; inconclusive means small, poorly fitted or top-dose-only effect, or another doubt; inactive means no such curve, though single readings can be large or run the other way. Potencies of inconclusive entries are left out as doubtful fits.
Assay: Primary qHTS for delayed death inhibitors of the malarial parasite plastid, 48 hour incubation
Conditions: P. falciparum luciferase growth in erythrocytes; series mostly up to 28.7 µM; activity change, negative = inhibition: at the top concentration
In short: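 Here the parasites carry a stable luciferase gene and grow inside erythrocytes in Albumax-based RPMI medium with compound for one erythrocytic cycle. Activity is scored as loss of luminescent signal.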
On the % scale 0 is the no-effect control and ±100 the full control effect; potency means the concentration at half of the fitted maximal effect; tags describe the fitted curve by direction and shape.

Structure (SMILES)	activity change, negative = inhibition	Potency
O=C(OCc1cccc(C(F)(F)F)c1)c1ccc[nH]c1=O	inactive: 0%	
CCOC(=O)c1ccc(NC(=O)c2nc[nH]c2C(=O)N[C@H](C)c2ccccc2)cc1		inconclusive [inhibitor, single point]
COc1ccc(NC(=O)NCCN2CCc3ccccc3C2)cc1	inactive: 0.741%	
COc1ccc(N2CCN(C(=O)COC(=O)Cc3c(F)cccc3Cl)CC2)cc1		inconclusive [inhibitor, single point]
O=C(NCC(c1ccco1)N1CCCCC1)c1cccnc1 (stereo not given)		inconclusive [inhibitor, single point]
CN(Cc1ccc(Cl)cc1Cl)C(=O)CNC(=O)c1ccco1	inactive: 5.64%	
Fc1ccc(C(c2ccc(F)cc2)N2CCN(C/C=C/c3ccccc3)CC2)cc1		active: 13.1 µM
CCOc1ccc(S(=O)(=O)Nc2nc3ccccc3nc2-n2ccc(=NC(=O)c3ccccc3C)cc2)cc1		inconclusive [inhibitor, single point]
CCC1=C(OC(=O)N(CC)CC)N2C(=O)OC(=NCCc3c[nH]c4ccccc34)[C@]2(C)[C@H]2C1=CC[C@H]1C(=O)NC(=O)[C@H]12		active: 11.7 µM
Nc1ccccc1C(=O)NNC1=C(C(=O)C(F)(F)F)CCC1		inconclusive [inhibitor, single point]
CC(C)C(=O)Nc1cccc(NC(=S)NC(=O)c2ccc(Cl)cc2)c1	inactive: 27%	
Cc1ccc(Cl)cc1NC(=O)CON=C(N)c1ccccc1	inactive: 3.74%	
O=C(NCc1cccnc1)c1cc(-c2ccccc2)on1	inactive: 114%	
Cc1ccc(OCCN2CCN(CC(O)Cn3c4ccccc4c4ccccc43)CC2)cc1 (stereo not given)		active: 2.62 µM
N#C/C(C(=O)NCc1ccccc1)=C1/N=C(NC(=O)c2ccco2)c2ccccc21		inconclusive [inhibitor, partial curve, poor fit]
O=[N+]([O-])c1ccc(-c2ccc(S(=O)(=O)NCCN3CCCC3)cc2)cc1		inconclusive [inhibitor, single point]
O=C(c1cnn2c(C(F)(F)F)cc(-c3ccccc3)nc12)N1CCCCC1c1cccnc1 (stereo not given)		inconclusive [inhibitor, full curve]
COc1ccc(OC)c(Nc2nc(N)nc(CCl)n2)c1		inconclusive [inhibitor, single point]
CCCCC(=O)NCCNc1nc2c(c(=O)n(C)c(=O)n2C)n1Cc1ccc(F)cc1		inconclusive [inhibitor, single point]
Cc1ccc(N=C(NO)c2nonc2N)cc1		inconclusive [inhibitor, partial curve, poor fit]

From PubChem BioAssay AID504832 (National Center for Advancing Translational Sciences (NCATS), 2011)
